# Results from ChEMBL document CHEMBL4888484, “Replenishing the malaria drug discovery pipeline: Screening and hit evaluation of the MMV Hit Generation Library 1 (HGL1) against asexual blood stage Plasmodium falciparum ,using a nano luciferase reporter read-out” (2022).
# Among all 150,000 compounds or so, about 540 (0.36%) showed an effect of 50% or more. The list shows a part of the results.
# Test system: Plasmodium falciparum
# Experiment: Primary screen in NF54 nanoGlo assay, in single point, at 2uM, 72h; a lower Z score goes with more inhibition
# Assay type: functional, Erythrocyte
# Details: timepoint 72 hour
SMILES,% Inhibition [%],Z score
COc1ncc(C(=O)N2CC[C@](C)(O)[C@H](O)C2)nc1OC,4,-0.68
COc1ccc([C@H]2OCC[C@@H]2NC(=O)c2cc(C)nc3c2cnn3C)cn1,-12,1.04
CC(C)(CC(=O)O)CC(=O)N1CCC[C@H](c2ccc(F)cc2)CC1,0,0.04
CC(C)N1CCC(N2C(=O)[C@@H]3CC[C@@H](c4ccccc4)N3C2=O)CC1,4,-0.66
CC(=Cc1ccccc1)CN1CCC2CCC(C1)S2(=O)=O (stereo not given),-3,0.4
Cc1cccc(Cl)c1-c1ccc(C(=O)N(C)CCC2(O)CCCC2)cc1,-6,0.83
COc1cccc(Cn2nc(C)c(NC(=O)c3cc(C)nc4c3cnn4C)c2C)c1,32,-3.61
NCCOc1cccc(CC(=O)N2C[C@H]3CCC[C@@H](C3)C2)c1,-9,0.9
C[C@@H](CO)NC(=O)Cn1c(-c2ccccc2)nn(-c2ccccc2Cl)c1=O,-12,1.43
NC(=O)Cc1nc(-c2ccc(O)c(F)c2)n(CCO)n1,-7,1.35
O=c1c2ccccc2nc(-c2ccc(Cl)cc2Cl)n1-c1ccc2ccccc2c1,-8,0.91
C[C@H](Nc1ncnc2c1CCC2)c1cnccn1,-11,1.7
Cn1c(CN(Cc2ccco2)C[C@H]2CCCO2)cc(=O)n(C)c1=O,-8,1.51
O=C(NC[C@H]1CCCS1(=O)=O)Nc1nccs1,-14,2.1
Nc1nc(C(F)(F)C(F)(F)C(F)(F)F)n[nH]1,-1,0.1
O=C(c1cn2ccnc2s1)N1CCCC12CCCCC2,4,-0.42
Nc1nc2ncc(Br)cc2o1,-2,0.33
CCc1ccc(S(=O)(=O)N[C@H]2CC(=O)N(C)C2=O)s1,-6,0.67
CCc1nc(-c2c(C)cc(C)nc2NC(=O)c2ccc(C)c(F)c2)no1,-2,0.31
CCOc1cccc(NC(=O)C(C)(C)C)c1,-10,1.72
COCCN1CCN(C(=O)NCc2cccs2)[C@H]2CS(=O)(=O)C[C@H]21,-4,0.79
N#Cc1cc(C(=O)N[C@H]2CCCOCC2)ccn1,36,-5.27
CCN(CC(=O)N1CCC(Cn2nc(C)cc2C)CC1)C1CC1,-16,2.46
CCCc1ccc(S(=O)(=O)N2CCN([C@H](C(=O)O)C3CC3)CC2)cc1,2,-0.52
Cc1ccc(CN[C@H]2CCCc3nc(-c4cccnc4)ncc32)o1,-16,1.45
CN(C)[C@@H]1C[C@@H](C(=O)O)N(C(=O)CC(c2ccccc2)c2ccccc2)C1,-2,0.17
COCc1nc2c(s1)CN(C(=O)c1ccccc1C)CC2,1,-0.16
Cc1ccccc1N(CC1CC1)C(=O)Nc1cccnc1,-6,0.56

SMILES,% Inhibition [%],Z score
COc1cccc2cc(C(=O)N3CCN(C/C=C/c4ccccc4)CC3)oc12,26,-2.96
Cc1ccc(S(=O)(=O)N2CCCCC2C)cc1C(=O)N1CC2C(C1)C2(C)C (stereo not given),-35,4.11
CCS(=O)(=O)N1CC(=O)N(c2ccc(F)cc2)[C@](C)(C(=O)NCc2ccc(F)cc2)C1,-3,0.33
CCCCc1nc(CN2CCN(c3ccc(O)cc3)CC2)no1,-5,0.63
CCc1cnc(NCCCn2ccnc2CC)nc1,-13,1.93
Cc1cccc(C[C@H](C)NC(=O)c2cc(=O)cc(C)n2C)n1,-4,0.81
Cc1cc(CS(=O)(=O)NCCOc2ccc(C(C)(C)C)cc2)on1,-7,0.98
CC(C)(NC(=O)CCc1ccccc1)C(=O)O,-2,0.35
Cc1cncc(-c2cc3c(cc2OC(C)(C)C(=O)O)OCC3)c1,-11,2.03
CCOC(=O)c1cnn(-c2cccc(C)c2C)c1CN1CCC(C(N)=O)CC1,-8,1.03
COc1ccc(Cc2nc(C)n(CCO)n2)cc1OC,-2,0.37
CC(=Cc1ccccc1)CNCC(=O)N1Cc2ccccc2C1,-11,1.23
NC(=NC1CC1)NCc1cccc(Cl)c1,-7,0.99
C[C@H]1CN(C(=O)COCc2cc[nH]c(=O)c2)CCN1c1ccccc1,6,-1.19
O=C(Nc1nnc(C2CC2)s1)c1cc(O)nc2ccccc12,1,-0.14
COc1ccc(CCNC(=O)Cn2nnc(Cc3ccc(C)cc3)n2)cc1,-2,0.32
CCn1nc(C)cc1C(=O)Nc1ccc(C)c(O[C@H]2CCOC2)c1,-12,1.09
CC(C)(C)OC(=O)N1CCCC1C1CCCCN1S(=O)(=O)c1cccc(S(N)(=O)=O)c1 (stereo not given),-9,1.63
CC1OCCC1C(=O)N1CCCN(C(=O)CCc2ccccc2)CC1 (stereo not given),-19,2
Cc1ccc(C(=O)N2CCC[C@H]2c2ccncc2)s1,-13,1.95
O=C(Nc1ccc(N2CCCC2=O)cc1)[C@@H]1Cc2ccccc2O1,-9,1.2
CC1CC(NS(=O)(=O)CCC2CCCO2)CCO1 (stereo not given),-3,0.38
Cc1cc(C)c2c(N)c(S(=O)(=O)c3ccc(C(C)(C)C)cc3)sc2n1,-13,2.14
c1cc2c(cc1Oc1nnnn1[C@H]1CO[C@H]3[C@@H]1OC[C@@H]3NCC1CCCCC1)OCO2,9,-1.07
CC[C@@H](c1ccc(OC)cc1)N(CC)C(=O)CCN1CCCCC1=O,-1,0.11
COc1cccc(Oc2nc(N3CCC(C)CC3)nc3c2CN(C(=O)Nc2ccc(C)cc2)CC3)c1,10,-1.41
COc1ccc(CN(C)Cc2nccs2)cn1,2,-0.31
